Results published in paper PMC12820563, “FoxP3 forms a head-to-head dimer in vivo and stabilizes its multimerization on adjacent microsatellites”.
The other results are listed elsewhere or left out.

Target: T1, MBP-FoxP1dN (Mus musculus, UniProt P58462 326-579)
T1 sequence: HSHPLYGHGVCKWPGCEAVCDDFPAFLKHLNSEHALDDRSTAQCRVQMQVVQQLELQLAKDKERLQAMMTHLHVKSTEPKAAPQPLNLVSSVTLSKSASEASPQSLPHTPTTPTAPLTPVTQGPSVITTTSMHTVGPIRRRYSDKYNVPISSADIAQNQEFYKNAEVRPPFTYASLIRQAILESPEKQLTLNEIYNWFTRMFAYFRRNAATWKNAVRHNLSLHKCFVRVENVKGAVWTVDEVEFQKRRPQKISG
Test: PD-seq (MBP pull-down with sequencing); 20 mM Tris-HCl pH 7.5, 100 mM NaCl, 1.5 mM MgCl2, 0.4 uM protein, 0.1 uM dsDNA library, 30 min, room temperature, amylose pull-down; high values mean tight binding
Details: protein: recombinant; tags: His6-MBP; chain copies: 2; dsDNA, one strand shown
In short: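 A fragment of mouse FoxP3 or FoxP1 without its N-terminus, carrying a His6-MBP tag and produced in E. coli, was combined at 0.4 µM with a 0.1 µM degenerate double-stranded DNA library filled in with Klenow. The mixture sat for 30 min at room temperature in Tris pH 7.5 buffer containing NaCl and MgCl2. Protein–DNA complexes were captured on amylose resin, washed three times, and the DNA was freed with proteinase K, barcoded by PCR and sequenced on Illumina. Binding is expressed as reads-per-million enrichment of pull-down over input, with replicates pooled.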

Row | Sequence | binding signal
1 | GATGATTGTTCTCCCAGCTGATGAATTTGATCGTTCGAGTAAACAAATTTTCCTAATCTTTCTGTTCAAGCGCCATCTAC | 0.901 RPM ratio (pull-down/input)
2 | GATGATTGTTCTCCCAGCTGATGAATTAGACCTTTCGAGTAAACAAATTTTCCTAATCTTTCTGTTCAAGCGCCATCTAC | 0.881 RPM ratio (pull-down/input)
3 | GATGATTGTTCTCCCAGCTGATGAATTTTCCGCCTCGAGTAAACAAATTTTCCTAATCTTTCTGTTCAAGCGCCATCTAC | 0.923 RPM ratio (pull-down/input)
4 | GATGATTGTTCTCCCAGCTGATGAATTTAGACCGTCGAGTAAACAAATTTTCCTAATCTTTCTGTTCAAGCGCCATCTAC | 0.941 RPM ratio (pull-down/input)
5 | GATGATTGTTCTCCCAGCTGATGAATTATGGCTATCGAGTAAACAAATTTTCCTAATCTTTCTGTTCAAGCGCCATCTAC | 0.962 RPM ratio (pull-down/input)
6 | GATGATTGTTCTCCCAGCTGATGAATTCTGGATTTCGAGTAAACAAATTTTCCTAATCTTTCTGTTCAAGCGCCATCTAC | 0.936 RPM ratio (pull-down/input)
7 | GATGATTGTTCTCCCAGCTGATGAATTAACTACCTCGAGTAAACAAATTTTCCTAATCTTTCTGTTCAAGCGCCATCTAC | 0.879 RPM ratio (pull-down/input)
8 | GATGATTGTTCTCCCAGCTGATGAATTCGGAGTGTCGAGTAAACAAATTTTCCTAATCTTTCTGTTCAAGCGCCATCTAC | 0.801 RPM ratio (pull-down/input)
9 | GATGATTGTTCTCCCAGCTGATGAATTTCACACTTCGAGTAAACAAATTTTCCTAATCTTTCTGTTCAAGCGCCATCTAC | 0.956 RPM ratio (pull-down/input)
10 | GATGATTGTTCTCCCAGCTGATGAATTTCGCAAGTCGAGTAAACAAATTTTCCTAATCTTTCTGTTCAAGCGCCATCTAC | 0.831 RPM ratio (pull-down/input)
11 | GATGATTGTTCTCCCAGCTGATGAATTTATTGCATCGAGTAAACAAATTTTCCTAATCTTTCTGTTCAAGCGCCATCTAC | 1.62 RPM ratio (pull-down/input)
12 | GATGATTGTTCTCCCAGCTGATGAATTGATGGCGTCGAGTAAACAAATTTTCCTAATCTTTCTGTTCAAGCGCCATCTAC | 1.01 RPM ratio (pull-down/input)
13 | GATGATTGTTCTCCCAGCTGATGAATTTAGTTCCTCGAGTAAACAAATTTTCCTAATCTTTCTGTTCAAGCGCCATCTAC | 0.864 RPM ratio (pull-down/input)
14 | GATGATTGTTCTCCCAGCTGATGAATTCTGGGGCTCGAGTAAACAAATTTTCCTAATCTTTCTGTTCAAGCGCCATCTAC | 0.742 RPM ratio (pull-down/input)
15 | GATGATTGTTCTCCCAGCTGATGAATTGCGGACATCGAGTAAACAAATTTTCCTAATCTTTCTGTTCAAGCGCCATCTAC | 1.1 RPM ratio (pull-down/input)
16 | GATGATTGTTCTCCCAGCTGATGAATTTGTGCAATCGAGTAAACAAATTTTCCTAATCTTTCTGTTCAAGCGCCATCTAC | 1.42 RPM ratio (pull-down/input)

Row | Sequence | binding signal
17 | GATGATTGTTCTCCCAGCTGATGAATTTCATCAATCGAGTAAACAAATTTTCCTAATCTTTCTGTTCAAGCGCCATCTAC | 1.01 RPM ratio (pull-down/input)
18 | GATGATTGTTCTCCCAGCTGATGAATTCTAGTCCTCGAGTAAACAAATTTTCCTAATCTTTCTGTTCAAGCGCCATCTAC | 0.763 RPM ratio (pull-down/input)
19 | GATGATTGTTCTCCCAGCTGATGAATTAGGCGCCTCGAGTAAACAAATTTTCCTAATCTTTCTGTTCAAGCGCCATCTAC | 1.04 RPM ratio (pull-down/input)
20 | GATGATTGTTCTCCCAGCTGATGAATTGCCGACTTCGAGTAAACAAATTTTCCTAATCTTTCTGTTCAAGCGCCATCTAC | 0.874 RPM ratio (pull-down/input)
21 | GATGATTGTTCTCCCAGCTGATGAATTTAGCAAGTCGAGTAAACAAATTTTCCTAATCTTTCTGTTCAAGCGCCATCTAC | 0.913 RPM ratio (pull-down/input)
22 | GATGATTGTTCTCCCAGCTGATGAATTTGTTACCTCGAGTAAACAAATTTTCCTAATCTTTCTGTTCAAGCGCCATCTAC | 1.24 RPM ratio (pull-down/input)
23 | GATGATTGTTCTCCCAGCTGATGAATTGCCGAATTCGAGTAAACAAATTTTCCTAATCTTTCTGTTCAAGCGCCATCTAC | 1 RPM ratio (pull-down/input)
24 | GATGATTGTTCTCCCAGCTGATGAATTCCGGTGTTCGAGTAAACAAATTTTCCTAATCTTTCTGTTCAAGCGCCATCTAC | 0.893 RPM ratio (pull-down/input)
25 | GATGATTGTTCTCCCAGCTGATGAATTAAGCACGTCGAGTAAACAAATTTTCCTAATCTTTCTGTTCAAGCGCCATCTAC | 0.999 RPM ratio (pull-down/input)
26 | GATGATTGTTCTCCCAGCTGATGAATTAGTGCACTCGAGTAAACAAATTTTCCTAATCTTTCTGTTCAAGCGCCATCTAC | 1.02 RPM ratio (pull-down/input)
27 | GATGATTGTTCTCCCAGCTGATGAATTTCCTGCGTCGAGTAAACAAATTTTCCTAATCTTTCTGTTCAAGCGCCATCTAC | 0.938 RPM ratio (pull-down/input)
28 | GATGATTGTTCTCCCAGCTGATGAATTGCGCATATCGAGTAAACAAATTTTCCTAATCTTTCTGTTCAAGCGCCATCTAC | 1.2 RPM ratio (pull-down/input)
29 | GATGATTGTTCTCCCAGCTGATGAATTTGAAGCGTCGAGTAAACAAATTTTCCTAATCTTTCTGTTCAAGCGCCATCTAC | 0.859 RPM ratio (pull-down/input)
30 | GATGATTGTTCTCCCAGCTGATGAATTGTGTGGGTCGAGTAAACAAATTTTCCTAATCTTTCTGTTCAAGCGCCATCTAC | 1.02 RPM ratio (pull-down/input)
31 | GATGATTGTTCTCCCAGCTGATGAATTGAGTGTTTCGAGTAAACAAATTTTCCTAATCTTTCTGTTCAAGCGCCATCTAC | 1.02 RPM ratio (pull-down/input)
